The record followed here is the supplement of paper PMC10369915.

The list shows a part of the results. No stated cut-off is given here; in the data, active = 3.2 or more and inactive = the rest. The signal is at background level for most entries.
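Further: displayed peptides selected on beads carrying the immobilized SH2 domain, with library peptides lacking any tyrosine serving as negative controls.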

The target of one assay is SHP2 C-SH2 domain E139D. Kind of assay: enrichment score (SH2-bound / input frequency) (ratio); bacterial display of known human phosphotyrosine sites (pTyr-Var adds point mutants) read by sequencing; higher = stronger binding; tyrosines were phosphorylated by kinases first. Conditions: peptide library: pTyr-Var.
With TDGIAYEFRVT [TTN_Y22256_I22261T], the enrichment score is inactive: 0.854.

Take TENAGYFFQVS [TTN_Y31721_R31724Q_YF]: the enrichment score was inactive: 0.978.

ITKNPYDPPGR [TTN_Y20412_A20408T]: the enrichment score is inactive: 0.77.

For the molecule IPQEEYKATGL [TTN_Y20178_T20179K], the enrichment score is inactive: 0.884.

As for CHKCTYKVTGL [TTN_Y21853], the enrichment score is active: 4.63.

Regarding DLHGIYQKLVI [TTN_Y21998_R21995H], the enrichment score was inactive: 1.59.

Turning to GFITSYREEEQ [TTN_Y19764_YF], the enrichment score was inactive: 0.895.

AKIDGYIISYR [TTN_Y19760_T19762I]: the enrichment score was inactive: 1.12.

For KPGVNYYFRVS [TTN_Y28165], the enrichment score is inactive: 1.01.

With KPGVNYFFRVS [TTN_Y28165_YF], the enrichment score was inactive: 1.07.

Regarding LECEWYKNGVK [TTN_Y2112_P2107L], the enrichment score is inactive: 1.18.

In the case of AKIDGYIISFR [TTN_Y19760_T19762I_YF], the enrichment score was inactive: 0.978.

As for PKDSAYVTWEP [TTN_Y20731_S20726P], the enrichment score is inactive: 0.688.

For LAVNPYGPPDP [TTN_Y22579], the enrichment score is inactive: 0.84.

With KPGVNYFFQVS [TTN_Y28165_R28168Q_YF], the enrichment score was inactive: 1.29.

Consider AKIDGYITSFR [TTN_Y19760_YF], for which the enrichment score is inactive: 0.864.

Turning to ENAGFYFQVSA [TTN_Y31722_R31724Q_YF], the enrichment score was inactive: 0.69.

As to PGVNFYFQVSA [TTN_Y28166_R28168Q_YF], the enrichment score is inactive: 1.09.

CHKRTYKVTGL [TTN_Y21853_C21851R]: the enrichment score was inactive: 1.42.

The target of a further assay is SHP2 C-SH2 domain wild-type. The assay is described as above. The conditions noted are these: peptide library: pTyr-Var.
As to TDGIAYEFRVT [TTN_Y22256_I22261T], the enrichment score is inactive: 1.23.

Take TENAGYFFQVS [TTN_Y31721_R31724Q_YF]: the enrichment score was inactive: 0.877.

With ITKNPYDPPGR [TTN_Y20412_A20408T], the enrichment score was inactive: 0.567.

Turning to IPQEEYKATGL [TTN_Y20178_T20179K], the enrichment score was inactive: 0.735.

CHKCTYKVTGL [TTN_Y21853]: the enrichment score was active: 4.04.

DLHGIYQKLVI [TTN_Y21998_R21995H]: the enrichment score is inactive: 1.17.

Consider GFITSYREEEQ [TTN_Y19764_YF], for which the enrichment score was inactive: 0.816.

For the molecule AKIDGYIISYR [TTN_Y19760_T19762I], the enrichment score was inactive: 1.07.

As to KPGVNYYFRVS [TTN_Y28165], the enrichment score was inactive: 1.16.

For the molecule KPGVNYFFRVS [TTN_Y28165_YF], the enrichment score was inactive: 0.958.

For LECEWYKNGVK [TTN_Y2112_P2107L], the enrichment score is inactive: 1.02.

Regarding AKIDGYIISFR [TTN_Y19760_T19762I_YF], the enrichment score was inactive: 0.945.

On to PKDSAYVTWEP [TTN_Y20731_S20726P], for which the enrichment score is inactive: 0.677.

For LAVNPYGPPDP [TTN_Y22579], the enrichment score is inactive: 0.758.

Turning to KPGVNYFFQVS [TTN_Y28165_R28168Q_YF], the enrichment score is inactive: 1.33.

Take AKIDGYITSFR [TTN_Y19760_YF]: the enrichment score was inactive: 0.727.

Take ENAGFYFQVSA [TTN_Y31722_R31724Q_YF]: the enrichment score is inactive: 0.838.

For PGVNFYFQVSA [TTN_Y28166_R28168Q_YF], the enrichment score is inactive: 2.23.

CHKRTYKVTGL [TTN_Y21853_C21851R]: the enrichment score was inactive: 1.02.

A further assay addresses SHP2 N-SH2 domain L43F. The assay is described as above. Conditions: peptide library: pTyr-Var.
For TDGIAYEFRVT [TTN_Y22256_I22261T], the enrichment score was inactive: 0.905.

Turning to TENAGYFFQVS [TTN_Y31721_R31724Q_YF], the enrichment score is inactive: 0.74.

With ITKNPYDPPGR [TTN_Y20412_A20408T], the enrichment score is inactive: 0.67.

Consider IPQEEYKATGL [TTN_Y20178_T20179K], for which the enrichment score is inactive: 0.727.

As for CHKCTYKVTGL [TTN_Y21853], the enrichment score was active: 4.37.

With DLHGIYQKLVI [TTN_Y21998_R21995H], the enrichment score was inactive: 1.28.

For GFITSYREEEQ [TTN_Y19764_YF], the enrichment score is inactive: 0.944.

Turning to AKIDGYIISYR [TTN_Y19760_T19762I], the enrichment score was inactive: 1.09.

KPGVNYYFRVS [TTN_Y28165]: the enrichment score is inactive: 1.01.

Regarding KPGVNYFFRVS [TTN_Y28165_YF], the enrichment score was inactive: 0.968.

On to LECEWYKNGVK [TTN_Y2112_P2107L], for which the enrichment score is inactive: 1.21.

As to AKIDGYIISFR [TTN_Y19760_T19762I_YF], the enrichment score is inactive: 0.96.

As for PKDSAYVTWEP [TTN_Y20731_S20726P], the enrichment score is inactive: 0.745.

In the case of LAVNPYGPPDP [TTN_Y22579], the enrichment score was inactive: 0.818.

Consider KPGVNYFFQVS [TTN_Y28165_R28168Q_YF], for which the enrichment score was inactive: 1.13.

For AKIDGYITSFR [TTN_Y19760_YF], the enrichment score is inactive: 0.894.

Take ENAGFYFQVSA [TTN_Y31722_R31724Q_YF]: the enrichment score is inactive: 1.03.

Consider PGVNFYFQVSA [TTN_Y28166_R28168Q_YF], for which the enrichment score is inactive: 1.51.

In the case of CHKRTYKVTGL [TTN_Y21853_C21851R], the enrichment score was inactive: 1.05.

The next assay addresses SHP2 N-SH2 domain T42A. Described as above. The conditions noted are these: peptide library: pTyr-Var.
In the case of TDGIAYEFRVT [TTN_Y22256_I22261T], the enrichment score is inactive: 0.687.

Turning to TENAGYFFQVS [TTN_Y31721_R31724Q_YF], the enrichment score was inactive: 0.638.

As to ITKNPYDPPGR [TTN_Y20412_A20408T], the enrichment score is inactive: 0.513.

As for IPQEEYKATGL [TTN_Y20178_T20179K], the enrichment score is inactive: 0.635.

As to CHKCTYKVTGL [TTN_Y21853], the enrichment score is active: 3.65.

As to DLHGIYQKLVI [TTN_Y21998_R21995H], the enrichment score is inactive: 1.19.

For the molecule GFITSYREEEQ [TTN_Y19764_YF], the enrichment score is inactive: 0.734.

In the case of AKIDGYIISYR [TTN_Y19760_T19762I], the enrichment score was inactive: 0.953.

On to KPGVNYYFRVS [TTN_Y28165], for which the enrichment score was inactive: 0.804.

Regarding KPGVNYFFRVS [TTN_Y28165_YF], the enrichment score is inactive: 0.82.

On to LECEWYKNGVK [TTN_Y2112_P2107L], for which the enrichment score is inactive: 0.647.

Take AKIDGYIISFR [TTN_Y19760_T19762I_YF]: the enrichment score is inactive: 1.01.

Turning to PKDSAYVTWEP [TTN_Y20731_S20726P], the enrichment score is inactive: 0.593.

In the case of LAVNPYGPPDP [TTN_Y22579], the enrichment score is inactive: 0.577.

On to KPGVNYFFQVS [TTN_Y28165_R28168Q_YF], for which the enrichment score was inactive: 1.36.

AKIDGYITSFR [TTN_Y19760_YF]: the enrichment score was inactive: 0.815.

Consider ENAGFYFQVSA [TTN_Y31722_R31724Q_YF], for which the enrichment score was inactive: 0.767.

Turning to PGVNFYFQVSA [TTN_Y28166_R28168Q_YF], the enrichment score was inactive: 0.88.

As to CHKRTYKVTGL [TTN_Y21853_C21851R], the enrichment score was inactive: 1.08.

Another assay deals with SHP2 N-SH2 domain T52S. The assay is described as above. Conditions: peptide library: pTyr-Var.
Turning to TDGIAYEFRVT [TTN_Y22256_I22261T], the enrichment score was inactive: 0.656.

Take TENAGYFFQVS [TTN_Y31721_R31724Q_YF]: the enrichment score was inactive: 0.584.

Regarding ITKNPYDPPGR [TTN_Y20412_A20408T], the enrichment score is inactive: 0.608.

In the case of IPQEEYKATGL [TTN_Y20178_T20179K], the enrichment score was inactive: 0.727.

As to CHKCTYKVTGL [TTN_Y21853], the enrichment score was active: 4.03.

In the case of DLHGIYQKLVI [TTN_Y21998_R21995H], the enrichment score was inactive: 1.22.

On to GFITSYREEEQ [TTN_Y19764_YF], for which the enrichment score is inactive: 0.962.

For the molecule AKIDGYIISYR [TTN_Y19760_T19762I], the enrichment score was inactive: 1.08.

For the molecule KPGVNYYFRVS [TTN_Y28165], the enrichment score is inactive: 0.786.

Take KPGVNYFFRVS [TTN_Y28165_YF]: the enrichment score was inactive: 0.845.

Consider LECEWYKNGVK [TTN_Y2112_P2107L], for which the enrichment score is inactive: 0.725.

Regarding AKIDGYIISFR [TTN_Y19760_T19762I_YF], the enrichment score was inactive: 0.913.

Regarding PKDSAYVTWEP [TTN_Y20731_S20726P], the enrichment score is inactive: 0.587.

With LAVNPYGPPDP [TTN_Y22579], the enrichment score is inactive: 0.791.

Regarding KPGVNYFFQVS [TTN_Y28165_R28168Q_YF], the enrichment score was inactive: 1.41.

On to AKIDGYITSFR [TTN_Y19760_YF], for which the enrichment score is inactive: 0.82.

As to ENAGFYFQVSA [TTN_Y31722_R31724Q_YF], the enrichment score is inactive: 0.733.

In the case of PGVNFYFQVSA [TTN_Y28166_R28168Q_YF], the enrichment score is inactive: 0.999.

For CHKRTYKVTGL [TTN_Y21853_C21851R], the enrichment score was inactive: 1.21.

A further assay deals with SHP2 N-SH2 domain wild-type. The assay is described as above. Conditions: peptide library: pTyr-Var.
Turning to TDGIAYEFRVT [TTN_Y22256_I22261T], the enrichment score was inactive: 1.14.

TENAGYFFQVS [TTN_Y31721_R31724Q_YF]: the enrichment score was inactive: 1.03.

Turning to ITKNPYDPPGR [TTN_Y20412_A20408T], the enrichment score was inactive: 0.736.

On to IPQEEYKATGL [TTN_Y20178_T20179K], for which the enrichment score was inactive: 1.04.

Take CHKCTYKVTGL [TTN_Y21853]: the enrichment score was active: 3.45.

Consider DLHGIYQKLVI [TTN_Y21998_R21995H], for which the enrichment score is inactive: 1.27.

With GFITSYREEEQ [TTN_Y19764_YF], the enrichment score was inactive: 0.847.

For AKIDGYIISYR [TTN_Y19760_T19762I], the enrichment score was inactive: 1.34.

As to KPGVNYYFRVS [TTN_Y28165], the enrichment score is inactive: 1.11.

With KPGVNYFFRVS [TTN_Y28165_YF], the enrichment score was inactive: 1.37.

As to LECEWYKNGVK [TTN_Y2112_P2107L], the enrichment score is inactive: 1.41.

Consider AKIDGYIISFR [TTN_Y19760_T19762I_YF], for which the enrichment score is inactive: 0.967.

Consider PKDSAYVTWEP [TTN_Y20731_S20726P], for which the enrichment score was inactive: 0.796.

As for LAVNPYGPPDP [TTN_Y22579], the enrichment score is inactive: 0.941.

Consider KPGVNYFFQVS [TTN_Y28165_R28168Q_YF], for which the enrichment score is inactive: 1.25.

With AKIDGYITSFR [TTN_Y19760_YF], the enrichment score was inactive: 0.764.

Regarding ENAGFYFQVSA [TTN_Y31722_R31724Q_YF], the enrichment score was inactive: 0.814.

For the molecule PGVNFYFQVSA [TTN_Y28166_R28168Q_YF], the enrichment score is inactive: 1.84.

As to CHKRTYKVTGL [TTN_Y21853_C21851R], the enrichment score is inactive: 1.19.
